Measured values from the supplement of paper PMC12645437, “Orthogonal IMiD-Degron Pairs Induce Selective Protein Degradation in Cells” (ACS Chemical Biology, 2025).
Some of the results follow.

target: no compound (DMSO); test: log2 fold change of degron read counts, EGFP-low vs EGFP+ sorted cells; higher = lower degron-EGFP level without compound (poor expression or instability); conditions: compound: DMSO control; 18 h
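Further: jurkat cells carrying a lentiviral library of mutant zinc finger degrons fused to EGFP plus mCherry, mCherry+ cells FACS sorted, degron abundance counted by next-generation sequencing.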

**Q.** FCCDVCGAIFTQKGNLLRHIKL was tested. Which “log2 fold change of degron read counts” value did it give?
**A.** The value was -0.476.

**Q.** With FKCPICGRGFTQKGNLLRHIKL as the sequence, how does the “log2 fold change of degron read counts” value read?
**A.** Its value is -0.853.

**Q.** FVCDQCGAEFTQKGNLLRHIKL was tested. Which “log2 fold change of degron read counts” value did it give?
**A.** Its value is -1.61.

**Q.** How did the “log2 fold change of degron read counts” value turn out when FKCNQCGRPFTQKGNLLRHIKL was run?
**A.** The value was 0.118.

**Q.** FICEQCGAIFTQKGNLLRHIKL was tested. Which “log2 fold change of degron read counts” value did it give?
**A.** Its value is -0.992.

**Q.** How did the “log2 fold change of degron read counts” value turn out when FRCNQCGRIFTQKGNLLRHIKL was run?
**A.** The value was 0.355.

**Q.** How did the “log2 fold change of degron read counts” value turn out when FNCEVCGAQFTQKGNLLRHIKL was run?
**A.** The value was -2.05.

**Q.** For LMCNQCGFGCTQKGNLLRHIKL, which “log2 fold change of degron read counts” value is on record?
**A.** The value was 1.09.

**Q.** How did the “log2 fold change of degron read counts” value turn out when FYCPVCGAAFTQKGNLLRHIKL was run?
**A.** Its value is -0.502.

**Q.** For FNCPICGAIFTQKGNLLRHIKL, which “log2 fold change of degron read counts” value is on record?
**A.** The value was 0.0255.

**Q.** Which “log2 fold change of degron read counts” value does the source give for LFCEICGFCCTQKGNLLRHIKL here?
**A.** The value was 0.856.

**Q.** For FQCDICGACFTQKGNLLRHIKL, which “log2 fold change of degron read counts” value is on record?
**A.** Its value is -0.711.

**Q.** FFCPVCGANFTQKGNLLRHIKL was tested. Which “log2 fold change of degron read counts” value did it give?
**A.** Its value is 0.149.

**Q.** For FSCEICGRHFTQKGNLLRHIKL, which “log2 fold change of degron read counts” value is on record?
**A.** The value was -1.29.
